# Screen size: about 48,000 compounds; about 120 (0.25%) were called active. Inconclusive results (about 4%) are left out. The call rests on the fitted dose curve; in most records, active means well fitted activation curve with a large enough effect; inconclusive means small, poorly fitted or top-dose-only effect, or another doubt; inactive means no such curve, though single readings can be large or run the other way. The list shows a part of the results.
# Assay: Primary qHTS for Identification of Small Molecule Activators of Huntingtin-Antisense Promoter Activity; further: nearly all actives have a fitted effect of over 55% in size
# Conditions: HEK293 HTT-AS promoter firefly luciferase reporter (activity 0% = vehicle and -100% = no light), 24 h; series mostly up to 57.5 µM; activity change, positive = activation: at the top concentration
# Outline: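 Quantitative HTS used concentration series of up to 57.5 uM final on HEK293 luciferase reporter cells, 24 h at 37 degrees C. Readout was Dual-Glo firefly luminescence.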
row,Compound,"activity change, positive = activation"
1,CCCN1CCN(c2ncc3c(n2)CCN(Cc2ccc(OC)c(OC)c2OC)C3)CC1,inactive: -8.14%
2,Cc1ccc(NC(=O)Cn2nc(-c3ccc(F)cc3)c3cnc4ccc(C)cc4c32)cc1,inactive: 2.77%
3,COc1ccccc1-c1noc(-c2ccc(N(C)Cc3ccccc3)c([N+](=O)[O-])c2)n1,inactive: -8.46%
4,COc1ccccc1C(=O)c1c(N)c(-c2nc(-c3ccccc3)cs2)c2ccccn12,inactive: -13%
5,CCCCN(CC)C(=O)CCn1c(=O)c2cccn2c2cccnc21,inactive: -8.17%
6,CCCCNC(=O)CN1C(=O)CSc2ccc(S(=O)(=O)N3CCC(C)CC3)cc21,inactive: -15.7%
7,CC(=O)c1cccc(N(C(=O)Cn2nnc3ccccc32)C(C(=O)NCc2ccccc2)c2ccc(F)cc2)c1 (configuration not stated),inactive: -25.3%
8,COc1cc(NS(=O)(=O)c2ccc(N)cc2)nc(C)n1,inactive: 0.808%
9,CSc1ncc(Cl)c(C(=O)Nc2nc3ccc(F)cc3s2)n1,inactive: 3.32%
10,COc1cccc(NC(=O)CN(Cc2ccccc2)S(=O)(=O)c2ccc3nc(C)sc3c2)c1,inactive: -24.2%
11,CCOc1ccc(CNCc2c(C(=O)O)c(C)n(Cc3ccc(F)cc3Cl)c2C)cc1,inactive: -33.3%
12,CCN1CCN(C(=O)c2ccc3c(c2)N(Cc2ccccc2)C(=O)c2ccccc2S3=O)CC1 (configuration not stated),inactive: -15%
13,Cc1nn(CCCC(=O)NCc2cccc(F)c2)c(=O)c2nn(-c3ccccc3)c(C)c12,inactive: 1.53%
14,COc1ccc(OC)c(-c2nc(C(N)=O)c3c(n2)n(-c2ccc4c(c2)OCO4)c(=O)n3C)c1,inactive: -9.85%
15,CCOC(=O)c1c(S(=O)(=O)NCC(=O)Nc2ccc(Cl)c(C(F)(F)F)c2)c(C)n(C)c1C,inactive: -40.9%
16,CCCCc1nn2c(=O)cc(COC(=O)c3cccc(NC(=O)c4cccc(C)c4)c3)nc2s1,inactive: -57.6%
17,CCOCCCNC(=O)Nc1cc(C(=O)NCc2ccc(C(C)C)cc2)ccc1N1CCCC1,inactive: -6.63%
18,CC(C)OCCCN(C)C1CCN(S(=O)(=O)c2csc(C(N)=O)c2)CC1,inactive: 15.5%
19,COc1ccc(-n2c(C)nc3cc(C(=O)NC4CCCC4)ccc32)cc1,inactive: -18.6%
20,CSc1cccc(NC(=O)Cn2nc(C)c3sc4ccccc4c3c2=O)c1,inactive: 8.68%
21,Cc1cccc(-c2nnc(SCC(=O)N3CCCc4ccccc43)o2)c1,inactive: -8.39%
22,COc1cc2c(cc1OC)C(COc1ccc(F)cc1)N(C(=O)c1ccccc1F)CC2 (configuration not stated),inactive: -23.2%
23,CC(=O)c1ccc(C(=O)N(Cc2cccnc2)c2nc3c(Cl)cccc3s2)cc1,inactive: -37.6%
24,Cc1ccc(S(=O)(=O)c2nnn3c2nc(NCc2cccs2)c2sccc23)cc1C,inactive: -12.3%

row,Compound,"activity change, positive = activation"
1,Cc1cc(C)cc(NC(=O)C2CCN(c3cc(C)nc4c(-c5ccc(Cl)cc5)c(C)nn34)CC2)c1,inactive: -4.79%
2,COC(=O)C(C)NC(=O)N1CCN(c2nnc(C)c3c(C)n(-c4ccc(Cl)cc4)nc23)CC1 (configuration not stated),inactive: -2.02%
3,CCCCCCCCCCCCCCCC(=O)NCCO,inactive: -2.88%
4,Cc1cccc(CS(=O)(=O)c2ncc(Cl)c(C(=O)Nc3nc4ccc(F)cc4s3)n2)c1,inactive: -16.1%
5,Cn1nnnc1SCCNCc1ccccc1OCc1ccc(Cl)cc1Cl,inactive: -33.2%
6,COc1ccc(-n2c(SCC(=O)Nc3nnc(C)s3)nc3c([nH]c4ccccc43)c2=O)cc1,inactive: -23.6%
7,CCOC(=O)c1scc(-c2ccc(C)cc2)c1S(=O)(=O)Nc1cccc(CC)c1,inactive: -38.1%
8,CC(C)N(C(=O)c1cc2c(Cl)nc3ccccc3c2s1)C1CCCCC1,inactive: -10.7%
9,COc1cccc2sc(N3CCN(C(=O)CS(=O)(=O)c4ccc(Cl)cc4)CC3)nc12,inactive: -47.4%
10,COc1cccc(CNc2ncc(-c3ccc(Br)cc3)n2C)c1,inactive: -22.9%
11,Cc1cccc(C(=O)Nc2cc3c(cc2N2CCOCC2)n(C)c(=O)n3C)c1,inactive: 0.477%
12,CCOC(=O)c1ccccc1Nc1cc(C)nc2nc(-c3ccco3)nn12,inactive: -18.5%
13,CCN1C(C(=O)c2ccccc2)=C(OC(=O)COc2ccccc2)c2ccccc2S1(=O)=O,inactive: -36%
14,O=C(NCCCN1CCN(c2ccccc2)CC1)c1nnc(Cc2ccc(F)cc2)o1,inactive: -15.7%
15,Nc1c(-c2nc(-c3ccccc3)cs2)c2ccccn2c1C(=O)c1ccc2c(c1)OCO2,inactive: -2.7%
16,O=C(O)CC(NS(=O)(=O)c1ccc(Br)s1)c1ccccc1 (configuration not stated),inactive: -9.01%
17,CCOc1ccc(NC(=O)Cn2cc(C(=O)c3ccc(C)cc3)c(=O)c3cc4c(cc32)OCCO4)cc1,inactive: -3.17%
18,Cc1cc(C)c(S(=O)(=O)N2CCN(Cc3nc4ccc(C)cc4o3)CC2)c(C)c1,inactive: -18.1%
19,CC1=C(C(=O)Nc2cc(C)ccc2C)C2(CCCCCC2)OC1=O,inactive: -14.5%
20,CCc1ccccc1Nc1cc(C(=O)NCCc2ccccc2)c2ccccc2n1,inactive: -14.8%
21,COc1ccc(N2CCN(Cc3cc(=O)oc4ccc(OC)cc34)CC2)cc1,inactive: -14.1%
22,COc1ccccc1NC(=O)C1=C(C)Nc2nc3ccccc3n2C1c1cccc(Br)c1 (configuration not stated),inactive: -28.7%
23,CCOC(=O)c1ccc2c(c1)N(Cc1cccc(C(F)(F)F)c1)C(=O)c1ccccc1S2(=O)=O,inactive: -19.7%

# — PubChem BioAssay AID1508624 (National Center for Advancing Translational Sciences (NCATS), 2021)
